Among the data in publication PMC7819943, “Rice protein-binding microarrays: a tool to detect cis-acting elements near promoter regions in rice” are binding signal values, retold here.

Some of the results follow.

For the test, the target named is T1, OsWOX13 (Oryza sativa, UniProt Q5QMM3 1-267).
T1 sequence: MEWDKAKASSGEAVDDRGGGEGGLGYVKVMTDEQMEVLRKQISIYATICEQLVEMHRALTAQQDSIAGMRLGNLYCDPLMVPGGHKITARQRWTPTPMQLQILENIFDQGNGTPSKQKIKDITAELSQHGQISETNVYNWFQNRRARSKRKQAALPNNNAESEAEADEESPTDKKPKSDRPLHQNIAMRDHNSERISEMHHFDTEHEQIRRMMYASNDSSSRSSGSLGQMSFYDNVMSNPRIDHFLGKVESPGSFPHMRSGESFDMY
Briefly: protein-binding microarray (RPBM); PBS, 2% BSA, 51.3 ng/ul salmon testes DNA, 50 uM zinc acetate, 200 nM TF, 25 C, 1 h; high values mean tight binding. Conditions: protein: recombinant; tags: N-terminal polyhistidine and DsRed monomer fusion (pET32a); label: CyDye5-dUTP incorporated in the synthesized complementary strand; 3' TTTTT single-stranded linker to array surface; dsDNA, one strand shown. Put shortly:
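Binding signal is defined as the fluorescence intensity of each feature in arbitrary units, read on an Axon 4000B scanner. Transcription factors with N-terminal polyhistidine and DsRed fusions came from E. coli BL21-CodonPlus and were purified on Ni–NTA. They were incubated at 200 nM for 1 h at 25 °C on a custom Agilent array that had been made double-stranded with Cy5-dUTP, with 50 µM zinc acetate present, and the array was washed.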
For “TAGCAATTGCTAATCACATTTATGGGTATGGCTTCCCTTACGGAGTCACCTAGTGCAG”, the binding signal was 13000 fluorescence intensity (a.u.).
Under “GGCAAATTAGTGCAAGATTTGCAGATCCAAGAATGTACAGCGGAGTCACCTAGTGCAG” stands 26500 fluorescence intensity (a.u.).
The result for “GGGAGATTGGAAGATCTATAATCTTAAGTGTGCGATCATTCGGAGTCACCTAGTGCAG” reads 22300 fluorescence intensity (a.u.).
Turning to “TTCTTTAACAGGCCTAATTAGCAAGAGGCCCAGATAATAGCGGAGTCACCTAGTGCAG”, the binding signal was 18400 fluorescence intensity (a.u.).
On to “AATCCAATCTAAATGGGTAGGATAATAACACCATCGTTTGCGGAGTCACCTAGTGCAG”, for which the binding signal is 5190 fluorescence intensity (a.u.).
On to “CTGTTTAATTTTGCTATTAAAATTTGAATTGCATTTGTTCCGGAGTCACCTAGTGCAG”, for which the binding signal is 24600 fluorescence intensity (a.u.).
Under “CCCAAATCTGGCAATTACAACTTCGGATAGAACAATCCAACGGAGTCACCTAGTGCAG” stands 4570 fluorescence intensity (a.u.); under “GTATTGTGATTTGTGAATCAGTGAATATGTGAATGTGATTCGGAGTCACCTAGTGCAG”, 13200 fluorescence intensity (a.u.).
With “CGAATTACCCTTAAATATAAATTTATTGTAGTCTAATCATCGGAGTCACCTAGTGCAG”, the binding signal is 5140 fluorescence intensity (a.u.).
For the sequence “ATTGATTTATAAAATTAGTATCATCAAAGGCGTAAAACGTCGGAGTCACCTAGTGCAG”, the binding signal is 34400 fluorescence intensity (a.u.).
“CATGACAGAGTGATCAAACACCAACCAATTAAACCGACCTCGGAGTCACCTAGTGCAG”: the binding signal is 15300 fluorescence intensity (a.u.).
Under “TCCTAGATTAATTAACCAAGATCCCGGCCTGAATTGAAGTCGGAGTCACCTAGTGCAG” stands 36500 fluorescence intensity (a.u.); under “TGTTAAATTATCATCCAACATAATTCACATAATGTTTCAACGGAGTCACCTAGTGCAG”, 12800 fluorescence intensity (a.u.); under “ATAACTGGAATTTATGTCACAAACTAGATGATTCCATCTGCGGAGTCACCTAGTGCAG”, 10700 fluorescence intensity (a.u.).
Under “GATTAATTTGCCATTGGATCCAAGCACACTCCTAGGTAAGCGGAGTCACCTAGTGCAG” stands 17400 fluorescence intensity (a.u.).
For “CAGATTGGATTCTATTCTAAACCCCAGCTAATACGCCACGCGGAGTCACCTAGTGCAG”, the binding signal was 13300 fluorescence intensity (a.u.).
For “TAGATATAATTACCTTTTCAGGACTCTATCCACGTGCGGCCGGAGTCACCTAGTGCAG”, the binding signal was 6740 fluorescence intensity (a.u.).
With “AAGGACTGACACGAAACAGACGGACACATGCACCTCACCCCGGAGTCACCTAGTGCAG”, the binding signal was 5180 fluorescence intensity (a.u.).
As for “CATCCATCCAACTTAATTTGACAGCAACTCACTGCAGCTTCGGAGTCACCTAGTGCAG”, the binding signal is 12000 fluorescence intensity (a.u.).
Under “ATAATTTATTCCCACTTGACAAGGCCGGCATCGCTTGGTTCGGAGTCACCTAGTGCAG” stands 7030 fluorescence intensity (a.u.); under “GATGGCCATAATTATGGATAGATTTCACTTTGGAATGAATCGGAGTCACCTAGTGCAG”, 16800 fluorescence intensity (a.u.).
For “AGTCCCATCTAAACAGGGCCTAATTGTTCTAGGACATGGGCGGAGTCACCTAGTGCAG”, the binding signal was 3510 fluorescence intensity (a.u.).
For “TTTGGGTGTTAGTGTCTTAATTAGTGTGTGAGCCCCATCCCGGAGTCACCTAGTGCAG”, the binding signal is 3790 fluorescence intensity (a.u.).
In the case of “CAATGAATAATTGAACAGGATTTGAGAAGTGATCAAGCTCCGGAGTCACCTAGTGCAG”, the binding signal was 16700 fluorescence intensity (a.u.).
Under “TTGTGAATGATTTGGGATGAACTATGTTGTTGTGAATGATCGGAGTCACCTAGTGCAG” stands 12000 fluorescence intensity (a.u.); under “CTCAATTAATTTCGTCCTAAGTGAACCTGTCATCTGTAGCCGGAGTCACCTAGTGCAG”, 26100 fluorescence intensity (a.u.); under “AATCATGGCGTAATTAGGCTTAAAAGATTCGTCTCGCAATCGGAGTCACCTAGTGCAG”, 3620 fluorescence intensity (a.u.).
As for “ATGCATTCAACTAATCAATATTATTTTCTATTGGTTTAACCGGAGTCACCTAGTGCAG”, the binding signal was 3560 fluorescence intensity (a.u.).
Consider “TATAATTATTTTGAGTCACTACTAACCTCCTTGCCCGTTACGGAGTCACCTAGTGCAG”, for which the binding signal is 22800 fluorescence intensity (a.u.).
The result for “AACCTGCTCCTGTCAAATCACACATTAACCTTCACCAACCCGGAGTCACCTAGTGCAG” reads 3350 fluorescence intensity (a.u.).
The result for “TCACCAAGACCATAAATTGACACATCGCATGCCACCAGGGCGGAGTCACCTAGTGCAG” reads 10800 fluorescence intensity (a.u.); that for “TCCATAATCAGTGCCAATTACCCTAATGCTGAGAAAAGATCGGAGTCACCTAGTGCAG”, 22800 fluorescence intensity (a.u.).
The result for “ATATTGATAGACGGACAAATCAATAGACATGTTGGCTGAACGGAGTCACCTAGTGCAG” reads 48300 fluorescence intensity (a.u.); that for “GATTAATTAATCAAGACACACTGATAGTGATCCAACCGTTCGGAGTCACCTAGTGCAG”, 34600 fluorescence intensity (a.u.).
Consider “GGGGATTGAGACTCTGATGAGCAGAACTGAGGTGTGGCAACGGAGTCACCTAGTGCAG”, for which the binding signal is 27100 fluorescence intensity (a.u.).
Consider “GTGACACCGTTATATGATGATTAATGATACGATAATAAGTCGGAGTCACCTAGTGCAG”, for which the binding signal was 5670 fluorescence intensity (a.u.).
For “GGGCGGGCGGGCTCGAGGTTGTGGTGGGGCGTGTGGCAGGCGGAGTCACCTAGTGCAG”, the binding signal is 3240 fluorescence intensity (a.u.).
Under “AGAAAAGATGAAAGGTCTAGATTGATTTTACTACCAGTAGCGGAGTCACCTAGTGCAG” stands 6660 fluorescence intensity (a.u.); under “CTCCCTGGCTCTGATTAATTTCTCCCCAACCCCACTCACTCGGAGTCACCTAGTGCAG”, 6830 fluorescence intensity (a.u.); under “TATTCTCATGATTTATATGAACACAAACCAATGGCCACATCGGAGTCACCTAGTGCAG”, 5710 fluorescence intensity (a.u.).
For “ACCAATTACACCCTAACATGCACACATTATCCCATACTGCCGGAGTCACCTAGTGCAG”, the binding signal is 5580 fluorescence intensity (a.u.).
Under “CAAAATTATTGGTTGTGTCAAAGCCCAGTTCCGGTTTTGACGGAGTCACCTAGTGCAG” stands 16300 fluorescence intensity (a.u.).
